The campaign covered roughly 200,000 compounds. About 4,500 (2.2%) were called active. The inconclusive results got no clear call from the source; some entries with a clear call stand among them for comparison. Calls follow the shape of the dose curve; as a rule, active = well fitted inhibition curve with a large enough effect; inconclusive = small, poorly fitted or top-dose-only effect, or effect the other way; inactive = flat fitted curve, though single readings scatter. Potencies beside an inconclusive call are fits to weak or partial responses and may not hold up.
Biological target: Cruzipain (Trypanosoma cruzi) (UniProt P25779)
Assay: qHTS Assay for Promiscuous and Specific Inhibitors of Cruzain (without detergent); also: nearly all actives have a fitted effect of over 40% in size;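 as to max response, negative = inhibition: plate controls were enzyme without inhibitor for no effect and buffer without enzyme for full effect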
Settings: purified cruzain, Z-FR-AMC fluorescence, no detergent
Summary of the method: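 Detergent-free condition (0.00005% Triton X-100) in acetate buffer pH 5.5 with DTT. 1.5 nM enzyme and compound were pre-mixed 15 min, then 2 uM Z-FR-AMC substrate added; reaction progress from fluorescence change between first and third reads (60 s).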
Potency is read from the fitted curve at half-maximal effect; tags tell the direction and shape of the fitted curve.

UniProt P25779, sequence (P25779 whole entry, looked up): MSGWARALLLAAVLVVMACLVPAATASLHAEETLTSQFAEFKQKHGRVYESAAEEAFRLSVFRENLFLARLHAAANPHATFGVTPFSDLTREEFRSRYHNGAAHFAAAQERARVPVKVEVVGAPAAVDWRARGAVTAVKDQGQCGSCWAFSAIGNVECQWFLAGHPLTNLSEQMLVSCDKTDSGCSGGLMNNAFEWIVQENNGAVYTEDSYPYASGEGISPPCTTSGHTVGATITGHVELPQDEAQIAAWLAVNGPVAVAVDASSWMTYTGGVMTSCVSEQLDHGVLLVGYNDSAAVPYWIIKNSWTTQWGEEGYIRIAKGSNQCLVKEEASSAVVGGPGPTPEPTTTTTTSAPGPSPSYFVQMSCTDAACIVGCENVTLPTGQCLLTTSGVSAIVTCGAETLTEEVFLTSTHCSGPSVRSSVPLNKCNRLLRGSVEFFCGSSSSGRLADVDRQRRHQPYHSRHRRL

Row | SMILES | Potency | max response, negative = inhibition
1 | CCOC(=O)c1ccc(N2C(=O)c3n[nH]c(-c4ccco4)c3C2c2cccc([N+](=O)[O-])c2)cc1 (stereo not drawn) | inconclusive: 25.1 µM [inhibitor, single point] | 
2 | CCOc1ccccc1NC(=O)CSc1nc2cc(OC)c(OC)cc2c2nc(CCn3c(C)nc4ccccc43)nn12 |  | inactive: -11.4%
3 | CCOC(=O)CN(C(=O)CSc1nnc(CNc2ccc(C)cc2C)o1)c1ccccc1 | inconclusive: 31.6 µM [activator, single point] | 
4 | CCCOc1ccc(CNC(=O)CCCN2C(=O)CSc3c2c(C)nn3-c2ccccc2)cc1 | inconclusive: 39.8 µM [activator, single point] | 
5 | Cc1ccc(-c2nc(CCNC(=O)C(=O)Nc3ccc(C)c(Cl)c3)cs2)cc1 |  | inactive: -1.89%
6 | C=C1CCC2C(C)(CO)C(O)CCC2(C)C1C/C=C1\C(=O)OCC1O (stereo not drawn) |  | inactive: -2.09%
7 | CCOC(=O)C1CCN(C(c2ccc(C)cc2)c2sc3nc(-c4ccco4)nn3c2O)CC1 (stereo not drawn) | inconclusive: 39.8 µM [activator, single point] | 
8 | O=C(N/N=C/c1ccc(-c2ccccc2[N+](=O)[O-])o1)[C@H]1C[C@@H]1c1ccccc1 | inconclusive: 31.6 µM [inhibitor, single point] | 
9 | COc1ccc(N2CCN(C(=S)Nc3cccc(C)c3)CC2)cc1 | inconclusive: 39.8 µM [inhibitor, single point] | 
10 | COc1cccc(CNC(=O)c2c[nH]n3c(=O)c(Cl)c(C)nc23)c1 | inconclusive: 39.8 µM [activator, single point] | 
11 | CCOC(=O)c1nc2sc3c(c2c(=O)[nH]1)CCCC3 | inconclusive: 15.8 µM [inhibitor, single point] | 
12 | COc1ccc(NC(=O)[C@@H]2[C@@H]3C(=O)N(C4CCCCC4)C(=O)[C@@H]3C3c4ccccc4C=CN32)cc1 (stereo partly drawn) | active: 15.8 µM | 
13 | N#Cc1c(-n2ncnc2-c2ccccc2Cl)sc2c1CCCCC2 |  | inactive: 15.9%
14 | Cc1cccc(NC(=O)Cn2nnc(-c3ccc(CN4CCCC4)cc3)n2)c1C | inconclusive: 31.6 µM [inhibitor, single point] | 
15 | O=C(CSc1ccc2nc(-c3ccccc3)cn2n1)Nc1ccccc1 | inconclusive: 39.8 µM [activator, single point] | 
16 | COc1ccc(CNC(=O)c2cc(-c3ccc(OC)c(OC)c3)nc3n[nH]c(-c4ccc(C)cc4)c23)cc1 | inconclusive: 10 µM [activator, partial curve] | 
17 | CC(=O)c1ccc(NC(=O)CSc2nnc3c(n2)[nH]c2ccccc23)cc1 | inconclusive: 25.1 µM [activator, single point] | 
18 | CCOc1ccc(C2CC(=O)c3c([nH]c(C(=O)OC)c3C)C2)cc1OC (stereo not drawn) | inconclusive: 7.94 µM [activator, full curve] | 
19 | CCOC(=O)N1CCN(CC(=O)Nc2cc(C)nn2-c2nc3ccccc3s2)CC1 | inconclusive: 31.6 µM [activator, single point] | 
20 | N#CCCN(C(=O)COC(=O)c1cccc(S(=O)(=O)Nc2ccc([N+](=O)[O-])cc2)c1)c1ccccc1 | inconclusive: 39.8 µM [inhibitor, single point] | 
21 | Cc1cccc(S(=O)(=O)C(C#N)c2nc3ccccc3nc2N2CC(C)OC(C)C2)c1 (stereo not drawn) | inconclusive: 31.6 µM [activator, partial curve] | 

Row | SMILES | Potency | max response, negative = inhibition
22 | COc1ccc(-c2cc(C(F)(F)F)nc(SCCC(=O)Nc3ccc(F)cc3F)n2)cc1 |  | inactive: -10%
23 | O=C(Nc1nc(-c2ccc(S(=O)(=O)N3CCCCCC3)cc2)cs1)c1ccccc1 | active: 10 µM | 
24 | CC1CCN(S(=O)(=O)c2ccc3nc(Nc4cccc(F)c4)ccc3c2)CC1 | inconclusive: 15.8 µM [inhibitor, partial curve] | 
25 | CN(C)C(=O)c1ccc(-c2nnc(NCc3ccccc3)c3ccccc23)cc1 | inconclusive: 25.1 µM [inhibitor, single point] | 
26 | CC(C)CC(=O)Nc1cccc(-c2cn3cccnc3n2)c1 |  | inactive: -6.54%
27 | CCC1(C)Cc2nc3[nH]c(=S)n(-c4ccc(C)cc4)c(=O)c3cc2CO1 (stereo not drawn) | active: 20 µM | 
28 | CCOC(=O)C1=C(c2ccccc2)Nc2nc(C)nn2C1c1cccc(OC)c1OC (stereo not drawn) | inconclusive: 15.8 µM [activator, single point] | 
29 | CC(C)CNC(=O)C(=O)Nc1c2c(nn1-c1ccc(Cl)cc1)CSC2 | inconclusive: 25.1 µM [inhibitor, single point] | 
30 | CCOc1ccc(NC(=O)c2cnn3c2NC(C)=C(C(=O)Nc2ccc(Cl)cc2)C3c2ccc(OC)c(OC)c2)cc1 (stereo not drawn) |  | inactive: 12%
31 | Cn1cc(S(=O)(=O)N2CCN(c3cccc(C(F)(F)F)c3)CC2)c(=O)n(C)c1=O | inconclusive: 39.8 µM [activator, single point] | 
32 | CCCCn1c(N)c(C(=O)OCC2CCCO2)c2nc3ccccc3nc21 (stereo not drawn) | inconclusive: 31.6 µM [activator, single point] | 
33 | O=c1oc(-c2cccc(Cl)c2)nc2c1cnn2-c1ccccc1 | inconclusive: 39.8 µM [inhibitor, single point] | 
34 | CCC(Sc1nc2nccnc2c(=O)n1Cc1ccc(Cl)cc1)C(=O)NC1CCCCC1 (stereo not drawn) |  | inactive: 8.2%
35 | COc1cccc(CNc2sc3c(c2C(=O)Nc2ccc(OC)cc2OC)CCC3)c1 |  | inactive: 6.97%
36 | CCCN(CCC)C(=O)CSc1nc2n[nH]c(C)c2c(=N)n1-c1ccc(OCC)cc1 | inconclusive: 39.8 µM [activator, single point] | 
37 | CN(C)c1ccc(NC(=O)CC(NCc2cccnc2)C(=O)O)cc1 (stereo not drawn) |  | inactive: -7.55%
38 | CCOc1ccc(CCNC(=O)CN2CCN(Cc3ccccc3C)C2=O)cc1OCC | inconclusive: 7.94 µM [inhibitor, single point] | 
39 | Cc1ccccc1NC(=O)c1sc2nc3n(c(=O)c2c1C)N=C(c1ccccc1)CS3 |  | inactive: 4.88%
40 | COc1ccc2nc(N3CCN(C(=O)CS(=O)(=O)c4ccc(C)cc4)CC3)sc2c1 | inconclusive: 25.1 µM [activator, single point] | 
41 | COc1ccccc1-c1nc2cc3ccccc3cc2nc1-c1ccccc1 | inconclusive: 39.8 µM [inhibitor, single point] | 
42 | Cc1nc(S/C(=C/c2ccc(-c3cccc(Cl)c3)o2)C(=O)O)n[nH]1 | active: 25.1 µM | 

Row | SMILES | Potency | max response, negative = inhibition
43 | O=c1nc(/C=C/c2ccc(-c3ccc(F)cc3)o2)cc(C(F)(F)F)[nH]1 | inconclusive: 39.8 µM [activator, single point] | 
44 | Cc1ccc(-c2cc(C(=O)N/N=C/c3c[nH]c4ccccc34)[nH]n2)cc1 |  | inactive: 4.98%
45 | COc1ccc(C)cc1NC1(c2ccccc2)C(=O)c2ccccc2C1=O | inconclusive: 39.8 µM [inhibitor, single point] | 
46 | COc1ccccc1N1CCN(C(=O)CN(Cc2ccccc2)S(C)(=O)=O)CC1 | inconclusive: 39.8 µM [activator, single point] | 
47 | O=C(CSc1ncnc2c(-c3ccc(Cl)cc3)nsc12)c1ccccc1 | inconclusive: 31.6 µM [inhibitor, single point] | 
48 | CCCC[C@H](CC)CN1CN(C[C@@H](CC)CCCC)CC(C)(N)C1 |  | inactive: 7.14%
49 | CC(C)(C)c1cc(Br)c(O)c(CN(Cc2cc(C(C)(C)C)cc(Br)c2O)C2CCCCC2)c1 |  | inactive: -2.29%
50 | CC(=O)OC1CC2C(C)(C)C(O)C=C[C@@]2(C)C2CC[C@@]3(C)C(c4ccoc4)OC(=O)C4OC43[C@]12C (stereo partly drawn) | inconclusive: 25.1 µM [activator, single point] | 
51 | CN1C(=O)C2(c3ccccc31)C1CCCC=C1C(C#N)=C(N)C2(C#N)C#N (stereo not drawn) | inconclusive: 39.8 µM [activator, single point] | 
52 | COc1cccc(NC(=O)c2oc3ccccc3c2NC(=O)c2ccc(OC(C)C)cc2)c1 | inconclusive: 3.98 µM [inhibitor, full curve] | 
53 | Cc1cccc(C)c1NC(=O)c1cc(S(=O)(=O)N2CCCc3ccccc32)ccc1F | inconclusive: 31.6 µM [inhibitor, single point] | 
54 | Cn1c(=O)[nH]c2cc(Cl)cnc21 |  | inactive: 14.9%
55 | CC(=O)N1CCCc2cc(S(=O)(=O)Nc3ccc(OC(F)(F)F)cc3)ccc21 | inconclusive: 39.8 µM [activator, single point] | 
56 | Nc1c(S(=O)(=O)c2cccs2)c2nc3ccccc3nc2n1Cc1ccccc1 | inconclusive: 3.16 µM [activator, single point] | 
57 | CC(C)c1ccc(NC(=O)C(Cc2ccccc2)n2cccc2)cc1 (stereo not drawn) |  | inactive: 0.622%
58 | N#Cc1ccc(-c2cccnc2)nc1SCC(=O)Nc1sc2c(c1C#N)CCC2 |  | inactive: -0.634%
59 | N#Cc1nc(Cc2cccc3ccccc23)oc1N1CCC(C(N)=O)CC1 | inconclusive: 39.8 µM [activator, single point] | 
60 | Cc1ccc(Nc2nc(CSc3nnc(-c4ccccc4)n3C)cs2)cc1 | inconclusive: 31.6 µM [inhibitor, single point] | 
61 | COC(=O)[C@H](Cc1ccccc1)NC(=O)O[C@@H]1C(=O)c2cc(Br)ccc2O[C@H]1c1cccc(OC)c1 | inconclusive: 25.1 µM [inhibitor, single point] | 
62 | COc1cc2cc(CN(C(=O)Nc3ccccc3)C3CCCC3)c(=O)[nH]c2cc1OC | inconclusive: 31.6 µM [activator, single point] | 
63 | N/C(=N\OC(=O)/C=C/c1ccc(Br)cc1)c1ccccn1 | inconclusive: 20 µM [inhibitor, single point] | 
